This is one part of the list. Most values come without repeats; read them as rough.
Each compound was assayed on G361 (assay: cell count relative to DMSO control; melanoma cells; higher = more viable cells). Settings: library dose: standard library concentration; 72 h.
`COCC[n+]1c2c(n(Cc3cnccn3)c1C)C(=O)c1ccccc1C2=O` + CCc1ccc(CCOc2ccc(CC3SC(=O)NC3=O)cc2)nc1 [pioglitazone] (first compound 0.002 µM, partner dose 10 µM) was tested, and the cell count was 70.2%. `Clc1ccc(Nc2nnc(Cc3ccncc3)c3ccccc23)cc1` [vatalanib] + Oc1cc(-c2nc(-c3ccccc3)[nH]c2-c2ccncc2)ccc1Cl [L779450] (first compound 10 µM, partner dose 1 µM) gave a cell count of 44.4%. `Clc1ccc(Nc2nnc(Cc3ccncc3)c3ccccc23)cc1` [vatalanib] + Cn1cc(/C=C2\C(=O)Nc3cccnc32)c2ccccc21 [GW441756] (first compound 10 µM, partner dose 2 µM) showed a cell count of 76.6%. With `Nc1cccc2c1CN(C1CCC(=O)NC1=O)C2=O` (centres undefined) [lenalidomide] + O=S(=O)(c1ccccc1)N(CC(F)(F)F)c1ccc(C(O)(C(F)(F)F)C(F)(F)F)cc1 [T0901317] (first compound 5 µM, partner dose 7 µM) the cell count was 77.9%. For `Nc1cccc2c1CN(C1CCC(=O)NC1=O)C2=O` (centres undefined) [lenalidomide] + CN(C)S(=O)(=O)c1ccc2c(c1)/C(=C/c1cc3c([nH]1)CCCC3)C(=O)N2 [SU6656] (first compound 5 µM, partner dose 2 µM), the cell count was 68.5%. `C#Cc1cccc(Nc2ncnc3cc(OCCOC)c(OCCOC)cc23)c1` [erlotinib] + COc1cc(Nc2ncc(F)c(Nc3ccc4c(n3)NC(=O)C(C)(C)O4)n2)cc(OC)c1OC [Tamatinib] (first compound 4 µM, partner dose 2 µM) showed a cell count of 81.9%. For `Nc1cccc2c1CN(C1CCC(=O)NC1=O)C2=O` (centres undefined) [lenalidomide] + CC(C)(C)c1cnc(CSc2cnc(NC(=O)C3CCNCC3)s2)o1 [SNS-032] (first compound 5 µM, partner dose 0.05 µM), the cell count was 90%. `O=C(CCCCCCC(=O)Nc1ccccc1)NO` [vorinostat] + CC(C)(C)c1cnc(CSc2cnc(NC(=O)C3CCNCC3)s2)o1 [SNS-032] (first compound 0.4 µM, partner dose 0.05 µM) showed a cell count of 71.9%. `Clc1ccc(Nc2nnc(Cc3ccncc3)c3ccccc23)cc1` [vatalanib] + O=C(Nc1ccccc1)c1cc([N+](=O)[O-])ccc1Cl [GW9662] (first compound 10 µM, partner dose 10 µM) gave a cell count of 49.8%. With `COCC[n+]1c2c(n(Cc3cnccn3)c1C)C(=O)c1ccccc1C2=O` + COc1cc(N2CCC(N3CCN(C)CC3)CC2)ccc1Nc1ncc(Cl)c(Nc2ccccc2S(=O)(=O)C(C)C)n1 [NVP-TAE684] (first compound 0.002 µM, partner dose 0.4 µM) the cell count was 71.8%. `O=C(CCCCCCC(=O)Nc1ccccc1)NO` [vorinostat] + COc1ccc(-c2ccc3c(N4CCOCC4)nc(N4C[C@@H](C)O[C@@H](C)C4)nc3n2)cc1CO [KU0063794] (first compound 0.4 µM, partner dose 0.1 µM) was tested, and the cell count was 70.5%. Work on `Cn1c(Nc2ccc(C(F)(F)F)cc2)nc2cc(Oc3ccnc(-c4ncc(C(F)(F)F)[nH]4)c3)ccc21` + CN(C)S(=O)(=O)c1ccc2c(c1)/C(=C/c1cc3c([nH]1)CCCC3)C(=O)N2 [SU6656] (first compound 0.4 µM, partner dose 2 µM) yielded a cell count of 23.6%. For `Clc1ccc(Nc2nnc(Cc3ccncc3)c3ccccc23)cc1` [vatalanib] + OCCn1cc(-c2cnc3nnn(Cc4ccc5ncccc5c4)c3n2)cn1 [PF04217903] (first compound 10 µM, partner dose 5 µM), the cell count was 86.5%. `Nc1cccc2c1CN(C1CCC(=O)NC1=O)C2=O` (centres undefined) [lenalidomide] + COc1ccc2c(c1)CCC1C2CCC2(C)C(NCCCCCCN3C(=O)C=CC3=O)CCC12 [U73122] (first compound 5 µM, partner dose 2 µM) showed a cell count of 75.6%. `Cn1c(Nc2ccc(C(F)(F)F)cc2)nc2cc(Oc3ccnc(-c4ncc(C(F)(F)F)[nH]4)c3)ccc21` + COc1cc(N2CCC(N3CCN(C)CC3)CC2)ccc1Nc1ncc(Cl)c(Nc2ccccc2S(=O)(=O)C(C)C)n1 [NVP-TAE684] (first compound 0.4 µM, partner dose 0.4 µM) gave a cell count of 15.1%. With `C#Cc1cccc(Nc2ncnc3cc(OCCOC)c(OCCOC)cc23)c1` [erlotinib] + COc1cc2ncnc(Nc3ccc(Oc4ccccc4)cc3)c2cc1OC [SrcI1] (first compound 4 µM, partner dose 10 µM) the cell count was 31.1%. `C#Cc1cccc(Nc2ncnc3cc(OCCOC)c(OCCOC)cc23)c1` [erlotinib] + Cc1cc([N+](=O)[O-])ccc1NS(=O)(=O)c1cc(Cl)ccc1Cl [FH535] (first compound 4 µM, partner dose 5 µM) was tested, and the cell count was 43.8%. With `OCc1c[nH]c2ccccc12` [Indole-3-carbinol] + C#Cc1cccc(Nc2ncnc3cc(OCCOC)c(OCCOC)cc23)c1 [erlotinib] (first compound 4 µM, partner dose 4 µM) the cell count was 75.2%. Compound `Clc1ccc(Nc2nnc(Cc3ccncc3)c3ccccc23)cc1` [vatalanib] + O=C(O)c1ccc(-c2c[nH]c3ncc(-c4ccccc4)cc23)cc1C1CCCC1 [GSK650394] (first compound 10 µM, partner dose 0.8 µM) has a cell count of 47.9%. For `Cn1c(Nc2ccc(C(F)(F)F)cc2)nc2cc(Oc3ccnc(-c4ncc(C(F)(F)F)[nH]4)c3)ccc21` + CO[C@@H]1[C@H](N(C)C(=O)c2ccccc2)C[C@H]2O[C@]1(C)n1c3ccccc3c3c4c(c5c6ccccc6n2c5c31)C(=O)NC4 [Midostaurin] (first compound 0.4 µM, partner dose 0.4 µM), the cell count was 20.1%. Work on `Clc1ccc(Nc2nnc(Cc3ccncc3)c3ccccc23)cc1` [vatalanib] + COCC[n+]1c2c(n(Cc3cnccn3)c1C)C(=O)c1ccccc1C2=O [YM155] (first compound 10 µM, partner dose 0.002 µM) yielded a cell count of 85.4%. `Cn1c(Nc2ccc(C(F)(F)F)cc2)nc2cc(Oc3ccnc(-c4ncc(C(F)(F)F)[nH]4)c3)ccc21` + O=C(O)C(=O)Nc1sc2c(c1C(=O)O)CCNC2 [TCS401] (first compound 0.4 µM, partner dose 8.33333 µM) showed a cell count of 36.6%. `O=C(CCCCCCC(=O)Nc1ccccc1)NO` [vorinostat] + COc1cc(Nc2ncc(F)c(Nc3ccc4c(n3)NC(=O)C(C)(C)O4)n2)cc(OC)c1OC [Tamatinib] (first compound 0.4 µM, partner dose 2 µM) gave a cell count of 54.6%. Compound `O=C(CCCCCCC(=O)Nc1ccccc1)NO` [vorinostat] + N#Cc1c(O)c2c(-c3ccc(-c4ccccc4O)cc3)csc2[nH]c1=O [A769662] (first compound 0.4 µM, partner dose 10 µM) has a cell count of 52.9%. For `Nc1cccc2c1CN(C1CCC(=O)NC1=O)C2=O` (centres undefined) [lenalidomide] + Cn1cc(/C=C2\C(=O)Nc3cccnc32)c2ccccc21 [GW441756] (first compound 5 µM, partner dose 2 µM), the cell count was 98%. `Clc1ccc(Nc2nnc(Cc3ccncc3)c3ccccc23)cc1` [vatalanib] + C=CCn1c(=O)c2cnc(Nc3ccc(N4CCN(C)CC4)cc3)nc2n1-c1cccc(C(C)(C)O)n1 [MK1775] (first compound 10 µM, partner dose 0.1 µM) showed a cell count of 59.7%. `COCC[n+]1c2c(n(Cc3cnccn3)c1C)C(=O)c1ccccc1C2=O` + O=c1cc(-c2cccc3c2Sc2ccccc2S3)oc(N2CCOCC2)c1 [KU55933] (first compound 0.002 µM, partner dose 5 µM) showed a cell count of 37.9%. In the case of `Cn1c(Nc2ccc(C(F)(F)F)cc2)nc2cc(Oc3ccnc(-c4ncc(C(F)(F)F)[nH]4)c3)ccc21` + O=C(CCCCCCC(=O)Nc1ccccc1)NO [vorinostat] (first compound 0.4 µM, partner dose 0.4 µM), the cell count was 25.1%. Work on `COCC[n+]1c2c(n(Cc3cnccn3)c1C)C(=O)c1ccccc1C2=O` + COc1cc2ncnc(Nc3ccc(Oc4ccccc4)cc3)c2cc1OC [SrcI1] (first compound 0.002 µM, partner dose 10 µM) yielded a cell count of 48.4%. Compound `COCC[n+]1c2c(n(Cc3cnccn3)c1C)C(=O)c1ccccc1C2=O` + Cc1ccc(NC(=O)c2cccc(N(C)C)c2)cc1NC(=O)c1ccc(O)cc1 [ZM336372] (first compound 0.002 µM, partner dose 10 µM) has a cell count of 81.8%. With `COCC[n+]1c2c(n(Cc3cnccn3)c1C)C(=O)c1ccccc1C2=O` + CN(NC(=O)CC(=O)NN(C)C(=S)c1ccccc1)C(=S)c1ccccc1 [STA4783] (first compound 0.002 µM, partner dose 0.03 µM) the cell count was 21.4%. In the case of `C#Cc1cccc(Nc2ncnc3cc(OCCOC)c(OCCOC)cc23)c1` [erlotinib] + Nc1cccc2c1CN(C1CCC(=O)NC1=O)C2=O [lenalidomide] (first compound 4 µM, partner dose 5 µM), the cell count was 81.8%. In the case of `Nc1cccc2c1CN(C1CCC(=O)NC1=O)C2=O` (centres undefined) [lenalidomide] + COC(=O)c1sccc1S(=O)(=O)Nc1ccc(Nc2ccccc2)cc1OC [GSK0660] (first compound 5 µM, partner dose 5 µM), the cell count was 90.5%. For `Nc1cccc2c1CN(C1CCC(=O)NC1=O)C2=O` (centres undefined) [lenalidomide] + NC(=O)Nc1cc(-c2cccc(F)c2)sc1C(=O)N[C@H]1CCCNC1 [AZD7762] (first compound 5 µM, partner dose 0.1 µM), the cell count was 90%.

From the supplement of paper PMC4604168 (melanoma cell lines)
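Note: cells treated in 1,536-well plates, then fixed and DAPI-stained, with nuclei counted from automated high-throughput microscope images.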
